# Source: PubChem BioAssay AID485294 (National Center for Advancing Translational Sciences (NCATS), 2010)
# Out of some 370,000 compounds screened, about 150 (0.041%) were called active. The shares of active, inactive and inconclusive entries below differ from those in the screen. Calls come from the whole dose curve; as a rule, active = well fitted inhibition curve with a large enough effect; inconclusive = small, poorly fitted or top-dose-only effect; inactive = flat fitted curve, though single readings scatter. Potencies of inconclusive entries are left out as doubtful fits.
# Target: Beta-lactamase (Escherichia coli (strain K12)) (UniProt P00811)
# Experiment: qHTS Inhibitors of AmpC Beta-Lactamase (assay with detergent); note: nearly all actives have a fitted effect of over 25% in size
# Conditions: AmpC hydrolysis of nitrocefin, absorbance 480 nm, 0.01% Triton; series mostly up to 114 µM
# In short: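 AmpC (5.3 nM in the dispensed reagent) in 20 mM phosphate pH 7.0 with 0.01% (detergent screen) or 0.0001% Triton X-100 was preincubated with compounds for 15 min at room temperature. Nitrocefin was then added from an 800 uM solution, and hydrolysis was followed at 480 nm.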
# Potency is the fitted concentration of half-maximal effect; tags give direction and shape of the fitted curve.
# UniProt P00811, sequence (P00811 whole entry, looked up): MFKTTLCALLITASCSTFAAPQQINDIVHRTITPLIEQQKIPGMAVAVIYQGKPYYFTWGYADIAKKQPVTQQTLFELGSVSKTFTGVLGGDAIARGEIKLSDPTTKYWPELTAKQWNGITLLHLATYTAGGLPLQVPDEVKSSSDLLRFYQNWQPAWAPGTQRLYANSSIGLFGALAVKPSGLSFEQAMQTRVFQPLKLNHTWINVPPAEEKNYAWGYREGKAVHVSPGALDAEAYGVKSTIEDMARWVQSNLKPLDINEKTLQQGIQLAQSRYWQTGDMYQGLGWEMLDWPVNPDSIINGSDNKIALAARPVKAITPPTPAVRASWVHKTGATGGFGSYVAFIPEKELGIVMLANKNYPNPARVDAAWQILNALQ
row,Structure (SMILES),Potency
1,CCOc1ccc(CC(=O)NCc2ccc3c(c2)CCN3C(=O)c2ccccc2)cc1OCC,inactive
2,Cc1ccc(S(=O)(=O)N(C)c2ccccc2C(=O)Nc2ccc(F)cc2F)cc1,"inconclusive [inhibitor, full curve]"
3,Cc1nc(-c2ccc(C(=O)Nc3ccccc3F)cc2)cs1,"inconclusive [inhibitor, single point]"
4,CCCO/N=C1/C(=O)N(c2ccccc2)c2ccccc21,"inconclusive [inhibitor, full curve, poor fit]"
5,Cc1ccc(NC(=S)/C(=C(\[O-])c2ccc(C)c([N+](=O)[O-])c2)[n+]2ccccc2)cc1C,inactive
6,O=C(Cn1cc(C(=O)c2ccccc2)c(=O)c2cc3c(cc21)OCCO3)Nc1ccc(F)c(F)c1,inactive
7,COC(=O)c1ccc(NC(=O)c2ccc(NC(=O)C3CCCO3)cc2)cc1 (centres undefined),inactive
8,CCOc1ccc2nc(SCC(=O)Nc3ccc4c(c3)OCO4)sc2c1,"inconclusive [inhibitor, full curve, poor fit]"
9,Cc1c(N2C(=O)/C(=C\C3CC=CCC3)SC2=S)c(=O)n(-c2ccccc2)n1C (centres undefined),inactive
10,CCOc1ccc(N2C(=O)/C(=C/c3ccccc3OCC(=O)OC)N(CC(=O)OC)C2=S)cc1,"inconclusive [inhibitor, single point]"
11,COc1ccc(/C=N/N=C2/NC(=O)C(c3ccccc3)(c3ccccc3)S2)cc1,"inconclusive [inhibitor, single point]"
12,Cc1cc(C(=O)NC2CCCC(C)C2C)c2ccccc2n1 (centres undefined),"inconclusive [inhibitor, full curve]"
13,CCc1cc2c(cc3c(=O)n(CC(=O)N4CCN(c5cccc(C)c5C)CC4)nc(CC)n32)s1,inactive
14,O=C(CCNS(=O)(=O)c1ccccc1C(F)(F)F)NCCCc1ccccc1,"inconclusive [inhibitor, full curve, poor fit]"
15,COc1ccccc1-c1nnc(SCc2ccccn2)n1C,inactive
16,Cc1cc(N/N=C2\CC(C)CC(C)(C)C2)nc2ccccc12 (centres undefined),"inconclusive [inhibitor, full curve, poor fit]"
17,C=CCNc1nc(-c2ccc(Cl)cc2)cs1,"inconclusive [inhibitor, full curve, poor fit]"
18,COc1ccccc1-c1cc(C(=O)Nc2cc(C)on2)no1,"inconclusive [inhibitor, full curve]"
19,COC(=O)c1cc(N=Nc2c(C)[nH]c3ccccc23)cc(C(=O)OC)c1,"inconclusive [inhibitor, single point]"
20,Clc1ccc(CN(Cc2ccccc2)C(c2cccs2)c2nnnn2C2CCCC2)cc1 (centres undefined),inactive
21,COC(=O)c1c(NC(=O)CSc2nnc(-c3ccco3)n2Cc2ccccc2)sc(C)c1C,"inconclusive [inhibitor, full curve, poor fit]"
22,Clc1cccc(Cl)c1OCCCCN1CCCCC1,"inconclusive [inhibitor, full curve, poor fit]"
23,COc1ccc(CNC(=O)N2CCc3ccccc3C2)cc1Cl,inactive

row,Structure (SMILES),Potency
1,O=C(OCc1nc2ccc(Cl)cc2n1CCO)c1ccccc1C(=O)c1ccccc1,"inconclusive [inhibitor, full curve, poor fit]"
2,O=C(NCc1cccnc1)c1csc2c1CCCC2,"inconclusive [inhibitor, partial curve, poor fit]"
3,Cc1c(-n2c(SCC(=O)NC(C)C(C)C)nc3ccccc3c2=O)c(=O)n(-c2ccccc2)n1C (centres undefined),inactive
4,CSc1c(CC(=O)NCCCO)n(Cc2ccccc2)c2ccccc12,"inconclusive [inhibitor, full curve, poor fit]"
5,CCn1c(C(=O)Nc2ccc(C)cc2C)cc2sc(Cl)cc21,inactive
6,Cc1oc2ncnc(N3CCOCC3)c2c1C(=O)NCCc1ccccc1,inactive
7,O=C(O)c1ccc(/C=N/NC(=O)c2cc(-c3ccc4c5c(cccc35)CC4)n[nH]2)cc1,inactive
8,COc1cccc(C(=O)Oc2ccc(N3C(=O)CCC3=O)c(C)c2)c1,"inconclusive [inhibitor, single point]"
9,O=C(COc1ccccc1Cl)N1CCN(c2ncccn2)CC1,"inconclusive [inhibitor, full curve, poor fit]"
10,CC(C)NC(=S)N(C)C1(c2ccccc2Cl)CCCCC1=O (centres undefined),inactive
11,CC[N+]1=C(C)C(C)(C)c2cc(C)ccc21,inactive
12,COc1ccc(/C(C)=N/Nc2nc3ccccc3nc2C)cc1OC,inactive
13,Nc1c(N=Nc2cccc(Cl)c2)c(=O)[nH]n1-c1ccccc1,"inconclusive [inhibitor, partial curve]"
14,Cc1cc(C(=O)OCC(=O)N2CC(C)OC(C)C2)c2ccccc2n1 (centres undefined),"inconclusive [inhibitor, full curve, poor fit]"
15,Cc1ccccc1NS(=O)(=O)c1ccc(C(=O)NCCCN2CCCC2=O)cc1,"inconclusive [inhibitor, single point]"
16,CCC(C)CCN1C(N(C)C)=NC[C@@H]1CC(C)C (some centres undefined),inactive
17,COc1cc2ccccc2cc1C(=O)Nc1ccc(Cl)cn1,"inconclusive [inhibitor, full curve, poor fit]"
18,Cc1cc(NC(=O)C2CCCCC2)ccc1NC(=O)c1ccccc1Cl,"inconclusive [inhibitor, full curve, poor fit]"
19,O=C(Nc1ccc(Br)cc1)Nc1ccccc1Cl,"inconclusive [inhibitor, partial curve, poor fit]"
20,COc1ccccc1-c1coc2c(CN(C)C)c(O)ccc2c1=O,"inconclusive [inhibitor, partial curve, poor fit]"
21,Cc1ccccc1NC(=S)NC1CCN(Cc2ccccc2)CC1,"inconclusive [inhibitor, full curve, poor fit]"
22,CC(C)(C)NC(=S)NCc1ccco1,"inconclusive [inhibitor, full curve, poor fit]"
23,CC(OC(=O)COc1ccc(C#N)cc1)C(=O)Nc1ccc(Cl)cn1 (centres undefined),"inconclusive [inhibitor, single point]"

row,Structure (SMILES),Potency
1,CC(C(=O)Nc1cc([N+](=O)[O-])ccc1Cl)N1CCN(c2ccccc2O)CC1 (centres undefined),inactive
2,COc1cc(N)c(Cc2nccc3cc(OC)c(OC)cc23)cc1OC,inactive
3,C1=CCN(Cc2ccccc2)C1,"inconclusive [inhibitor, partial curve]"
4,Cn1c(=NC(=O)C2CCN(S(=O)(=O)c3cccs3)CC2)sc2ccccc21,"inconclusive [inhibitor, partial curve, poor fit]"
5,CCC(Oc1ccccc1)C(=O)Nc1ccc(S(=O)(=O)Nc2ncccn2)cc1 (centres undefined),"inconclusive [inhibitor, single point]"
6,CN(C(=O)COC(=O)c1nn(C)c(=O)c2ccccc12)c1c(N)n(Cc2ccccc2)c(=O)[nH]c1=O,"inconclusive [inhibitor, full curve, poor fit]"
7,Cc1cc(C)cc(NC(=O)CN2CCC(NC(=O)Cc3ccccc3)CC2)c1,"inconclusive [inhibitor, single point]"
8,COc1ccccc1NC(=O)CN(Cc1ccccc1)S(C)(=O)=O,"inconclusive [inhibitor, full curve, poor fit]"
9,Cc1sc2nc3n(c(=O)c2c1C)NC(=O)CC3,"inconclusive [inhibitor, full curve, poor fit]"
10,COc1ccc(S(=O)(=O)Nc2cccc(SC)c2)cc1C(=O)N1CCOCC1,"inconclusive [inhibitor, full curve]"
11,Cc1ccccc1-c1nc(C(=O)NCC2CCCO2)cc2c1[nH]c1ccccc12 (centres undefined),"inconclusive [inhibitor, full curve, poor fit]"
12,CCCCc1c(C)nc2nc(SCc3ccc(Cl)cc3)[nH]n2c1=O,"inconclusive [inhibitor, single point]"
13,Cc1ccccc1N1CC(c2nnc(NC(=O)c3ccco3)s2)CC1=O (centres undefined),inactive
14,NC(=O)CC(NC(=O)c1ccc(Br)cc1)c1ccc(N2CCCCCCC2)c([N+](=O)[O-])c1 (centres undefined),"inconclusive [inhibitor, full curve, poor fit]"
15,Cc1cccc(-n2c(-c3ccoc3C)n[nH]c2=S)c1,"inconclusive [inhibitor, full curve]"
16,Cc1cc(NS(=O)(=O)c2ccc(NS(=O)(=O)c3ccc(Br)cc3)cc2)no1,"inconclusive [inhibitor, full curve, poor fit]"
17,COC(=O)c1sccc1NC(=O)c1cc(C)on1,"inconclusive [inhibitor, full curve, poor fit]"
18,OC(c1ccc(F)cc1)(C1CCCCC1)C(CN1CCOCC1)c1ccccc1 (centres undefined),"inconclusive [inhibitor, partial curve, poor fit]"
19,COc1ccc(C(Nc2ccccn2)c2oc(CO)cc(=O)c2O)cc1 (centres undefined),"inconclusive [inhibitor, partial curve, poor fit]"
20,CCc1nn(CC(=O)NCCCc2ccccc2)c(=O)c2cc3ccccc3n12,inactive
21,COc1ccc(OC)c(/C=N/Nc2nc(C)cc(=O)[nH]2)c1,inactive
22,Fc1ccccc1CNCCC(Cc1ccccc1)c1ccc2c(c1)OCO2 (centres undefined),inactive
23,CCn1nc(NC(C)=O)c2cc3cccc(C)c3nc21,"inconclusive [inhibitor, partial curve, poor fit]"
